Experimental data from the supplement of paper PMC10126150.
Values marked as one replicate rest on one cluster of the flow cell; about a third of the high ones do not repeat.

System: ATP
Assay: switch fluorescence ratio, 500 uM ATP over buffer (Cy3 cluster intensity, sum of 5 cycles each) (fold (ratio)); higher = stronger signal-on switching upon ATP binding; sequences stand for … in TCGTCGGCAGCGTCAGATGTGTATAAGAGACAGTTTTTTTTTTTTTTTTTTTTTTTTT…TC
Conditions: aptamer strand: ATP DNA aptamer (quencher-CACCTGGGGGAGTATTGCGGAGGAAGG + anchor), 100 nM annealed; ATP concentration: 500 uM; one replicate
Summary of the method: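 The quencher-labelled ATP aptamer, at 100 nM, was annealed to Cy3-labelled switching-strand clusters on a modified Illumina MiSeq flow-cell. The clusters were imaged in selection buffer, then after 15 min with 500 uM ATP at 22 °C, and this buffer/ATP cycle ran five times with NaOH stripping and re-annealing between runs. Per-cluster fluorescence ratios, summed target-cycle over summed buffer-cycle Cy3 intensity, were averaged per switch-domain sequence. Clusters outside 100-1000 RFU were excluded.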
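Further: ATP exposure 15 min at 22 °C before imaging.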

Question: CGCGGTTATT was tested. Which switch fluorescence ratio did it give?
Answer: The switch fluorescence ratio was 1.01.

Question: With TGGAATACTT as the sequence, how does the switch fluorescence ratio read?
Answer: Its switch fluorescence ratio is 1.15.

Question: Which switch fluorescence ratio does the source give for GGTATGACCT here?
Answer: The switch fluorescence ratio was 1.07.

Question: TTATTTGGTT was tested. Which switch fluorescence ratio did it give?
Answer: The switch fluorescence ratio was 0.997.

Question: TGTGGTAAAA was tested. Which switch fluorescence ratio did it give?
Answer: Its switch fluorescence ratio is 0.956.

Question: For GAGCAAGCCT, which switch fluorescence ratio is on record?
Answer: Its switch fluorescence ratio is 2.22.

Question: How did the switch fluorescence ratio turn out when CTATGTTGAA was run?
Answer: The switch fluorescence ratio was 0.998.

Question: With ATTCGGCCAC as the sequence, how does the switch fluorescence ratio read?
Answer: Its switch fluorescence ratio is 0.987.

Question: TCATTTTATA was tested. Which switch fluorescence ratio did it give?
Answer: Its switch fluorescence ratio is 1.03.

Question: AGTTGCAGGC was tested. Which switch fluorescence ratio did it give?
Answer: The switch fluorescence ratio was 1.06.

Question: With TCTTCTCAGA as the sequence, how does the switch fluorescence ratio read?
Answer: Its switch fluorescence ratio is 1.13.

Question: With GAAGCACGTT as the sequence, how does the switch fluorescence ratio read?
Answer: The switch fluorescence ratio was 1.01.

Question: How did the switch fluorescence ratio turn out when AAGGAGTTC was run?
Answer: Its switch fluorescence ratio is 0.967.

Question: With GCGCCCGTTT as the sequence, how does the switch fluorescence ratio read?
Answer: The switch fluorescence ratio was 1.05.

Question: How did the switch fluorescence ratio turn out when AAGCTCGCCA was run?
Answer: The switch fluorescence ratio was 0.98.

Question: How did the switch fluorescence ratio turn out when TAATAAGCGA was run?
Answer: Its switch fluorescence ratio is 1.03.

Question: How did the switch fluorescence ratio turn out when TTTGCAATGG was run?
Answer: The switch fluorescence ratio was 1.62.

Question: CACTGTGGGG was tested. Which switch fluorescence ratio did it give?
Answer: The switch fluorescence ratio was 0.992.

Question: CTACAAACGT was tested. Which switch fluorescence ratio did it give?
Answer: The switch fluorescence ratio was 1.38.

Question: With TTACGACGTC as the sequence, how does the switch fluorescence ratio read?
Answer: Its switch fluorescence ratio is 1.05.

Question: For CAAGCCGGGC, which switch fluorescence ratio is on record?
Answer: The switch fluorescence ratio was 1.09.

Question: With CGATGAATTA as the sequence, how does the switch fluorescence ratio read?
Answer: The switch fluorescence ratio was 1.04.

Question: How did the switch fluorescence ratio turn out when TTACAGAGCG was run?
Answer: Its switch fluorescence ratio is 1.06.

Question: How did the switch fluorescence ratio turn out when ACTCGAAAGG was run?
Answer: The switch fluorescence ratio was 1.07.

Question: GATGGAGGGT was tested. Which switch fluorescence ratio did it give?
Answer: The switch fluorescence ratio was 1.06.

Question: Which switch fluorescence ratio does the source give for ATTGATTACA here?
Answer: The switch fluorescence ratio was 1.04.

Question: How did the switch fluorescence ratio turn out when GTGCCCATGA was run?
Answer: The switch fluorescence ratio was 1.02.

Question: For ACGTGACGGA, which switch fluorescence ratio is on record?
Answer: Its switch fluorescence ratio is 1.28.

Question: How did the switch fluorescence ratio turn out when GGGAAATACG was run?
Answer: The switch fluorescence ratio was 1.17.

Question: GCAACGGTTT was tested. Which switch fluorescence ratio did it give?
Answer: Its switch fluorescence ratio is 1.

Question: With ACGATTATAT as the sequence, how does the switch fluorescence ratio read?
Answer: The switch fluorescence ratio was 1.03.

Question: With ATATACGGTG as the sequence, how does the switch fluorescence ratio read?
Answer: Its switch fluorescence ratio is 1.09.

Question: Which switch fluorescence ratio does the source give for AAGCCGTTCT here?
Answer: Its switch fluorescence ratio is 0.995.

Question: Which switch fluorescence ratio does the source give for TCTTGAAGA here?
Answer: The switch fluorescence ratio was 0.98.

Question: Which switch fluorescence ratio does the source give for AACGAGTAGA here?
Answer: The switch fluorescence ratio was 1.01.

Question: For TGTAATGGAA, which switch fluorescence ratio is on record?
Answer: The switch fluorescence ratio was 0.957.

Question: Which switch fluorescence ratio does the source give for GAGACAATGT here?
Answer: The switch fluorescence ratio was 1.02.

Question: With TCGGCCGTAG as the sequence, how does the switch fluorescence ratio read?
Answer: The switch fluorescence ratio was 1.32.

Question: With GCAAGGAGAT as the sequence, how does the switch fluorescence ratio read?
Answer: Its switch fluorescence ratio is 0.982.

Question: How did the switch fluorescence ratio turn out when TTTAAGGTAC was run?
Answer: The switch fluorescence ratio was 1.19.

Question: With ATGCGGTGCG as the sequence, how does the switch fluorescence ratio read?
Answer: The switch fluorescence ratio was 1.01.

Question: For CAGGCGTTCA, which switch fluorescence ratio is on record?
Answer: Its switch fluorescence ratio is 1.01.

Question: Which switch fluorescence ratio does the source give for TCAATTCTTC here?
Answer: The switch fluorescence ratio was 1.34.

Question: Which switch fluorescence ratio does the source give for CGTATACTGG here?
Answer: The switch fluorescence ratio was 1.05.

Question: For GCTCCTCGGC, which switch fluorescence ratio is on record?
Answer: The switch fluorescence ratio was 1.19.

Question: For AAACTGCCAA, which switch fluorescence ratio is on record?
Answer: The switch fluorescence ratio was 1.06.

Question: With TAATCTGTCA as the sequence, how does the switch fluorescence ratio read?
Answer: The switch fluorescence ratio was 0.996.

Question: Which switch fluorescence ratio does the source give for GCACATAGAT here?
Answer: Its switch fluorescence ratio is 1.

Question: How did the switch fluorescence ratio turn out when AACAGGTCTA was run?
Answer: The switch fluorescence ratio was 1.01.

Question: How did the switch fluorescence ratio turn out when CCGGTAGTA was run?
Answer: Its switch fluorescence ratio is 1.11.

Question: For CGGAAAAACT, which switch fluorescence ratio is on record?
Answer: Its switch fluorescence ratio is 0.984.

Question: How did the switch fluorescence ratio turn out when GCCGGAGACA was run?
Answer: The switch fluorescence ratio was 0.983.

Question: How did the switch fluorescence ratio turn out when TGGTGTGCGG was run?
Answer: Its switch fluorescence ratio is 1.08.

Question: For GAGGTACATA, which switch fluorescence ratio is on record?
Answer: The switch fluorescence ratio was 1.06.

Question: GTGGCCGCTA was tested. Which switch fluorescence ratio did it give?
Answer: The switch fluorescence ratio was 1.01.

Question: With GTAGTTGGGA as the sequence, how does the switch fluorescence ratio read?
Answer: Its switch fluorescence ratio is 0.961.

Question: For ATTCCAGAGA, which switch fluorescence ratio is on record?
Answer: Its switch fluorescence ratio is 0.968.

Question: Which switch fluorescence ratio does the source give for AGAGGAGGCT here?
Answer: The switch fluorescence ratio was 0.97.

Question: GGTGGGACGT was tested. Which switch fluorescence ratio did it give?
Answer: Its switch fluorescence ratio is 1.06.

Question: TGATTAGTGG was tested. Which switch fluorescence ratio did it give?
Answer: Its switch fluorescence ratio is 0.954.

Question: For TCAGGACAGG, which switch fluorescence ratio is on record?
Answer: Its switch fluorescence ratio is 1.04.

Question: How did the switch fluorescence ratio turn out when TCAGATAGGT was run?
Answer: The switch fluorescence ratio was 0.995.

Question: GGGGGTGCG was tested. Which switch fluorescence ratio did it give?
Answer: Its switch fluorescence ratio is 0.971.

Question: TCTTTAGGAG was tested. Which switch fluorescence ratio did it give?
Answer: Its switch fluorescence ratio is 0.984.

Question: For CAGTGCATCC, which switch fluorescence ratio is on record?
Answer: The switch fluorescence ratio was 1.06.

Question: For GTTACGAATT, which switch fluorescence ratio is on record?
Answer: Its switch fluorescence ratio is 1.01.

Question: How did the switch fluorescence ratio turn out when TTAGGACACG was run?
Answer: Its switch fluorescence ratio is 0.957.

Question: With CACCGATAGC as the sequence, how does the switch fluorescence ratio read?
Answer: Its switch fluorescence ratio is 1.47.

Question: For CTCTCGTCTT, which switch fluorescence ratio is on record?
Answer: Its switch fluorescence ratio is 0.989.

Question: How did the switch fluorescence ratio turn out when GGATCTTCAT was run?
Answer: Its switch fluorescence ratio is 1.02.

Question: With AGTACGCGG as the sequence, how does the switch fluorescence ratio read?
Answer: The switch fluorescence ratio was 0.962.

Question: TCGCGCCGAT was tested. Which switch fluorescence ratio did it give?
Answer: The switch fluorescence ratio was 1.01.

Question: AAAATTACAG was tested. Which switch fluorescence ratio did it give?
Answer: The switch fluorescence ratio was 0.97.

Question: Which switch fluorescence ratio does the source give for GCCTATATAA here?
Answer: The switch fluorescence ratio was 1.1.

Question: GGTGGGACCG was tested. Which switch fluorescence ratio did it give?
Answer: The switch fluorescence ratio was 0.993.

Question: Which switch fluorescence ratio does the source give for ACTCTTTTG here?
Answer: The switch fluorescence ratio was 1.03.

Question: Which switch fluorescence ratio does the source give for TAATACCTGT here?
Answer: Its switch fluorescence ratio is 1.04.

Question: Which switch fluorescence ratio does the source give for ACGGGTGGAT here?
Answer: Its switch fluorescence ratio is 0.961.

Question: With TGTCAATGCG as the sequence, how does the switch fluorescence ratio read?
Answer: Its switch fluorescence ratio is 0.985.

Question: GGGTTTTCTA was tested. Which switch fluorescence ratio did it give?
Answer: The switch fluorescence ratio was 0.992.

Question: With CTAATCAATT as the sequence, how does the switch fluorescence ratio read?
Answer: The switch fluorescence ratio was 1.02.

Question: For CCTGTGGGCA, which switch fluorescence ratio is on record?
Answer: Its switch fluorescence ratio is 0.994.

Question: Which switch fluorescence ratio does the source give for AGAGGGCCTT here?
Answer: The switch fluorescence ratio was 0.986.

Question: AATTACAAAG was tested. Which switch fluorescence ratio did it give?
Answer: The switch fluorescence ratio was 1.03.

Question: Which switch fluorescence ratio does the source give for TTCGCTGTA here?
Answer: The switch fluorescence ratio was 1.07.

Question: How did the switch fluorescence ratio turn out when TGTGCTAG was run?
Answer: The switch fluorescence ratio was 1.01.

Question: Which switch fluorescence ratio does the source give for AACGACAAGC here?
Answer: Its switch fluorescence ratio is 1.19.

Question: For ATGAATTGCC, which switch fluorescence ratio is on record?
Answer: Its switch fluorescence ratio is 1.04.

Question: For GATGCGACTA, which switch fluorescence ratio is on record?
Answer: The switch fluorescence ratio was 1.01.

Question: For CAAACCCAGA, which switch fluorescence ratio is on record?
Answer: The switch fluorescence ratio was 0.987.

Question: ATAATGAGTG was tested. Which switch fluorescence ratio did it give?
Answer: Its switch fluorescence ratio is 1.03.

Question: Which switch fluorescence ratio does the source give for GAAAATCGGG here?
Answer: The switch fluorescence ratio was 0.993.

Question: How did the switch fluorescence ratio turn out when CAAAGAGGGT was run?
Answer: Its switch fluorescence ratio is 1.01.

Question: With CTCAACGGTA as the sequence, how does the switch fluorescence ratio read?
Answer: The switch fluorescence ratio was 1.06.

Question: How did the switch fluorescence ratio turn out when GGCGTTTATG was run?
Answer: The switch fluorescence ratio was 1.01.

Question: Which switch fluorescence ratio does the source give for TGTCAGCGAA here?
Answer: The switch fluorescence ratio was 1.03.

Question: GTCATATTGT was tested. Which switch fluorescence ratio did it give?
Answer: Its switch fluorescence ratio is 1.

Question: For TCTGACGTTA, which switch fluorescence ratio is on record?
Answer: Its switch fluorescence ratio is 1.81.

Question: CGTTTGGCTG was tested. Which switch fluorescence ratio did it give?
Answer: The switch fluorescence ratio was 1.

Question: With GCGGTGCTCA as the sequence, how does the switch fluorescence ratio read?
Answer: Its switch fluorescence ratio is 1.13.
